This note sets out measurements from paper PMC4336329 (PLoS ONE, 2015).

SMILES strings stand for the structures. Out of some 310,000 compounds screened, about 2,200 (0.71%) showed an effect of 50% or more. Effects have a minus sign here. The list shows a part of the results.

The target in this test is human ether-à-go-go-related gene (hERG) potassium channel (human, UniProt Q12809). Description: primary screen, population patch clamp on CHO cells stably expressing hERG.
Chain of human ether-à-go-go-related gene (hERG) potassium channel (Q12809 whole entry, looked up): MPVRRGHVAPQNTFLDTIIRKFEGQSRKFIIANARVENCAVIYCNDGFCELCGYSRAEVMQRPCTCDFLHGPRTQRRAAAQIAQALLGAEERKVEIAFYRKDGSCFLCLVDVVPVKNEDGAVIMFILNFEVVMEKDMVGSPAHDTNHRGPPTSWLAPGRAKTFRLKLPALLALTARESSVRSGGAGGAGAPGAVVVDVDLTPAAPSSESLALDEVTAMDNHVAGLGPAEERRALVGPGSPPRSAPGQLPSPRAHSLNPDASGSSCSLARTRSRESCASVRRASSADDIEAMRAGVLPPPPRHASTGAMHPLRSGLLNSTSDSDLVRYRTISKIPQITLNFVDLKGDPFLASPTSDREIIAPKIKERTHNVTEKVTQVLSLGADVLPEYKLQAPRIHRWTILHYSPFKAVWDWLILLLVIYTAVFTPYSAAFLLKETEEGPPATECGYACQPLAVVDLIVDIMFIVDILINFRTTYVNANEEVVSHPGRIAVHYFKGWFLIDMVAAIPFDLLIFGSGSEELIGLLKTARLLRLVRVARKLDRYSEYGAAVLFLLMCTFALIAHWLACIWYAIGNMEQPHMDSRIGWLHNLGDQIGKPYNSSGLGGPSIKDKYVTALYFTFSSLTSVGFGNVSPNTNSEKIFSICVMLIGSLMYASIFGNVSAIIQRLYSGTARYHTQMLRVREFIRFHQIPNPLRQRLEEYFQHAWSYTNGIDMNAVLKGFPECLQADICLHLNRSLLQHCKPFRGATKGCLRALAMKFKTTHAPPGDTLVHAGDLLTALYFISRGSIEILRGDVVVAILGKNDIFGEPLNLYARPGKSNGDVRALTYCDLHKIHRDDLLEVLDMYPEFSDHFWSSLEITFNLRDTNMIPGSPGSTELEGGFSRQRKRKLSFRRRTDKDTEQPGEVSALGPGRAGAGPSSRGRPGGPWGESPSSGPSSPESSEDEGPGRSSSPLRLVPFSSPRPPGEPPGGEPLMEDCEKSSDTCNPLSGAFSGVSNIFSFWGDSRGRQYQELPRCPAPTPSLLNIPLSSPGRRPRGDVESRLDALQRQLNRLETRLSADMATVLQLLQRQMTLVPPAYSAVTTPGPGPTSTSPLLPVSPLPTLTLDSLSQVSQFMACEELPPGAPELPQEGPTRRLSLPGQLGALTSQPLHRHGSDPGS
`Cc1ccc(S(=O)(=O)NNC(=O)C(O)(c2ccccc2)c2ccccc2)cc1`: the “hERG current change (%, negative = inhibition) at 1uM” value is listed as 7.47%. For `CCOC(=O)c1[nH]c(C)c(C(=O)Nc2ccc(Cl)cc2)c1C`, the “hERG current change (%, negative = inhibition) at 1uM” value stood at 5.71%. Under `CSc1nnc(C(C)(C)C)c(=O)n1/N=C/c1c(O)ccc2ccccc12` stands 11%. Under `CC1CC(=O)Nc2ccccc2N1C(=O)COc1cc(Cl)ccc1Cl` (centres unmarked) stands 7.85%. Under `OC(c1nc2ccccc2[nH]1)C(O)C(O)C(O)c1nc2ccccc2[nH]1` (centres unmarked) stands 11.4%; under `COc1cccc(C(=O)/C=C/c2ccc(OCC#N)c(OC)c2)c1`, 14.9%; under `COc1ccccc1N1CCN(C(=O)CN2C(=O)c3ccccc3C2=O)CC1`, 10.8%.

As for `Cc1cnc(C(=O)Nc2ccc(N3CCCCC3)cc2)cn1`, the “hERG current change (%, negative = inhibition) at 1uM” value is reported as 11.5%. With `CC(=O)c1ccc(NC(=O)CN2C(=O)NC(C)(C3CCCCC3)C2=O)cc1` (centres unmarked), the “hERG current change (%, negative = inhibition) at 1uM” value is reported as 8.55%. Consider `Cc1nc(C)n(CC(C)C(=O)N2CCN(S(=O)(=O)c3ccc(Cl)cc3)CC2)n1` (centres unmarked), for which the “hERG current change (%, negative = inhibition) at 1uM” value came to 1.01%. As for `O=C1CC(c2cccnc2)c2cc3c(cc2N1)OCO3` (centres unmarked), the “hERG current change (%, negative = inhibition) at 1uM” value was found to be 26.7%. As to `Cc1ccccc1OCC(=O)N/N=C/c1cccc2cccnc12`, the “hERG current change (%, negative = inhibition) at 1uM” value is recorded as 12.5%. Under `O=C(CN1C(=O)c2ccccc2S1(=O)=O)NCCSCc1ccccc1Cl` stands 4.36%; under `Cc1cc(C)n2nc(CC(=O)NC3CCCCCCC3)nc2n1`, -36.9%. Under `CN(C)S(=O)(=O)c1cccc(NC(=S)NC(=O)C2CCCCC2)c1` stands 5.37%; under `Cc1ccc(C)c(N2CN(Cc3ccco3)CNC2=S)c1`, 4.28%; under `O=C1CCC(=O)c2oc3ccccc3c2N1`, 7.22%. Under `Cc1oncc1C(=S)Nc1ccccc1` stands 12.9%; under `O=C(CSc1nnc(-c2cccnc2)o1)Nc1ccc(Cl)cc1`, -0.351%. Take `COc1cc(F)c(S(=O)(=O)N2CCOc3ccccc32)cc1OC`: the “hERG current change (%, negative = inhibition) at 1uM” value is reported as 10.9%. Under `C/C(=N\NC(=O)COc1ccc([N+](=O)[O-])cc1)c1ccco1` stands -7.63%; under `COc1cc2c(cc1OC)C(C)N(C(C)=O)CC2` (centres unmarked), 3.77%; under `CCOCCCNC(=S)N1CCC(C(=O)c2ccc3c(c2)OCCO3)CC1`, -3.48%. In the case of `OCCCCO`, the “hERG current change (%, negative = inhibition) at 1uM” value came out at 9.62%. Under `Cc1ccc(N(Cc2ccc(C(=O)NN=C3CCN(C)CC3)cc2)S(C)(=O)=O)cc1C` stands 9.53%; under `O=C(NCC1CCCN1S(=O)(=O)c1cccs1)c1cccc(F)c1` (centres unmarked), 19.4%.

`CCN(CC(=O)Nc1ccc(C(C)=O)cc1)CC(=O)Nc1ccccc1C(F)(F)F`: the “hERG current change (%, negative = inhibition) at 1uM” value turned out to be 16.2%. Under `Oc1ccc(/C=C/c2nc(-c3ccccc3O)n(-c3ccccc3)n2)cc1` stands -1.25%; under `CCOc1ccc(N2C(=O)c3cccnc3C2Nc2ccc(Cl)cc2)cc1` (centres unmarked), 14.2%; under `CCCOc1cccc(C(=O)NCCNC(=O)c2ccco2)c1`, 18.6%. Under `CCCN1CCN(C(=O)c2cn(CC(C)C)c(=O)c3cc(OC)c(OC)cc23)CC1` stands 1.26%. With `CC1=C(C(=O)Nc2ccccc2)C(c2cccc([N+](=O)[O-])c2)Nc2nc3ccccc3n21` (centres unmarked), the “hERG current change (%, negative = inhibition) at 1uM” value was 2.42%. Under `COc1cccc(C2=NOC(C(=O)N3CCc4ccccc4C3)C2)c1` (centres unmarked) stands 5.71%; under `O=C1c2ccc(-c3ccc4c(c3)C(=O)N(CCCO)C4=O)cc2C(=O)N1CCCO`, 6.96%; under `O=C(Cn1cnc2ccccc2c1=O)Nc1ccc(S(=O)(=O)N2CCCC2)cc1`, 7.5%. Under `O=C(Nc1ccc2oc(=O)ccc2c1)c1ccc(-c2cccc(Cl)c2)o1` stands 12.3%; under `Cc1cc(NC(=O)CN2CCCCC2)no1.O=C(O)C(=O)O`, 17.4%; under `Cn1cc(SCC(=O)NCC2CCCO2)c2ccccc21` (centres unmarked), -12%. Under `CN(C)c1ccc(/C=N/n2c(-c3cccnc3)n[nH]c2=S)cc1` stands 12.3%. Regarding `Cc1ccccc1Cn1cc(NC(=O)c2nc3ncccn3n2)cn1`, the “hERG current change (%, negative = inhibition) at 1uM” value is given as -7.99%. Under `CC1(c2ccc(Cl)cc2Cl)NC(=O)N(CC(=O)Nc2cccnc2Cl)C1=O` (centres unmarked) stands 11.4%; under `COc1cc(OC)c(NC(=O)c2ccc3c(SCC(=O)O)c4c(nc3c2)CCCC4)cc1Cl`, 16.7%; under `NC(=O)CSc1nnc(-c2ccc(S(=O)(=O)N3CCOCC3)cc2)n1Cc1ccccc1`, -0.797%. Under `Cc1cnc(NC(=O)[C@H](C)N2C(=O)C3CCCCC3C2=O)s1` (some centres unmarked) stands 17.5%.
